# In the supplement of paper PMC8728848:
# The list shows a part of the results.
# B1: Cohesin-mDCIR (Macaca mulatta) (protein)
# chain: GLDDLDAVRIKVDTVNAKPGDTVRIPVRFSGIPSKGIANCDFVYSYDPNVLEIIEIEPGDIIVDPNPDKSFDTAVYPDRKIIVFLFAEDSGTGAYAITKDGVFATIVAKVKEGAPNGLSVIKFVEVGGFANNDLVEQKTQFFDGGVNVGDTTEPATPTTPVTTPTTTDDLDAASFQKYSQLLEKMTTKDLVHTTLECVKKNMTTEETAWSCCPKNWKPFSSNCYFISTESASWQKSEKDCARMEAHLLVINTREEQDFIFQNLQEESAYFVGLSDPEGQRHWQWVDRTPYNESSTFWHPHEPSDPDERCVVLNFRKTPKRWGWNDVHCIVHQRSVCEMMKIHLHHHHHH
# Columns and labels:
# Test in all cases: glycan array binding signal (z-score within array); higher = stronger binding
# Conditions in all cases: glycan notation: IUPAC condensed, linker removed
# [1] = biological target: Glc(b1-6)Glc
# In short: (§1)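 Columns mapping to the same glycan were averaged after glycan names were converted to IUPAC-condensed notation. The data come from 3228 arrays in the Consortium for Functional Glycomics database, limited to those with an available protein sequence. Binding is reported as a within-array Z-score averaged across arrays of one protein sequence and across linkers.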
# [2] = biological target: GlcA(b1-3)Gal
# In short: as §1
# [3] = biological target: GlcA(b1-3)GlcNAc
# In short: as §1
# [4] = biological target: GlcA(b1-6)Gal
# In short: as §1
# [5] = biological target: GlcA3S(b1-3)Gal(b1-4)GlcNAc(b1-2)Man
# In short: as §1
# [6] = biological target: GlcA3S(b1-3)Gal(b1-4)GlcNAc(b1-3)Gal(b1-4)Glc
# In short: as §1
# [7] = biological target: GlcNAc(a1-3)Gal(b1-4)GlcNAc
# In short: as §1
# [8] = biological target: GlcNAc(a1-4)Gal(b1-3)GlcNAc
# In short: as §1
# [9] = biological target: GlcNAc(a1-4)Gal(b1-4)GalNAc
# In short: as §1
# [10] = biological target: GlcNAc(a1-4)Gal(b1-4)GlcNAc
# In short: as §1
# [11] = biological target: GlcNAc(a1-4)Gal(b1-4)GlcNAc(b1-3)Gal(b1-4)Glc
# In short: as §1
# [12] = biological target: GlcNAc(a1-4)Gal(b1-4)GlcNAc(b1-3)Gal(b1-4)GlcNAc
# In short: as §1
# [13] = biological target: GlcNAc(a1-4)Gal(b1-4)GlcNAc(b1-3)Gal(b1-4)GlcNAc(b1-3)Gal(b1-4)GlcNAc
# In short: as §1
# [14] = biological target: GlcNAc(a1-4)Gal(b1-4)GlcNAc(b1-3)Gal(b1-4)[Fuc(a1-3)]GlcNAc(b1-3)Gal(b1-4)[Fuc(a1-3)]GlcNAc
# In short: as §1
# [15] = biological target: GlcNAc(a1-6)Gal(b1-4)GlcNAc
# In short: as §1
# [16] = biological target: GlcNAc(b1-2)Gal(b1-3)GalNAc
# In short: as §1
# [17] = biological target: GlcNAc(b1-2)Man(a1-3)[GlcNAc(b1-2)Man(a1-6)]Man(b1-4)GlcNAc(b1-4)GlcNAc
# In short: as §1
# [18] = biological target: GlcNAc(b1-2)Man(a1-3)[GlcNAc(b1-2)Man(a1-6)]Man(b1-4)GlcNAc(b1-4)[Fuc(a1-6)]GlcNAc
# In short: as §1
# [19] = biological target: GlcNAc(b1-2)Man(a1-3)[GlcNAc(b1-4)][GlcNAc(b1-2)Man(a1-6)]Man(b1-4)GlcNAc(b1-4)GlcNAc
# In short: as §1
# [20] = biological target: GlcNAc(b1-2)Man(a1-3)[GlcNAc(b1-4)][GlcNAc(b1-2)Man(a1-6)]Man(b1-4)GlcNAc(b1-4)[Fuc(a1-6)]GlcNAc
# In short: as §1
# [21] = biological target: GlcNAc(b1-2)[GlcNAc(b1-4)]Man(a1-3)[GlcNAc(b1-2)Man(a1-6)]Man(b1-4)GlcNAc(b1-4)GlcNAc
# In short: as §1
# [22] = biological target: GlcNAc(b1-2)[GlcNAc(b1-4)]Man(a1-3)[GlcNAc(b1-4)][GlcNAc(b1-2)Man(a1-6)]Man(b1-4)GlcNAc(b1-4)GlcNAc
# In short: as §1
# [23] = biological target: GlcNAc(b1-2)[GlcNAc(b1-4)]Man(a1-3)[GlcNAc(b1-4)][GlcNAc(b1-2)[GlcNAc(b1-6)]Man(a1-6)]Man(b1-4)GlcNAc(b1-4)GlcNAc
# In short: as §1
# [24] = biological target: GlcNAc(b1-2)[GlcNAc(b1-4)]Man(a1-3)[GlcNAc(b1-4)][GlcNAc(b1-2)[GlcNAc(b1-6)]Man(a1-6)]Man(b1-4)GlcNAc(b1-4)[Fuc(a1-6)]GlcNAc
# In short: as §1
# [25] = biological target: GlcNAc(b1-2)[GlcNAc(b1-6)]Man(a1-6)[GlcNAc(b1-2)Man(a1-3)]Man(b1-4)GlcNAc(b1-4)GlcNAc
# In short: as §1
# [26] = biological target: GlcNAc(b1-2)[GlcNAc(b1-6)]Man(a1-6)[GlcNAc(b1-2)Man(a1-3)]Man(b1-4)GlcNAc(b1-4)[Fuc(a1-6)]GlcNAc
# In short: as §1
# [27] = biological target: GlcNAc(b1-2)[GlcNAc(b1-6)]Man(a1-6)[GlcNAc(b1-4)][GlcNAc(b1-2)Man(a1-3)]Man(b1-4)GlcNAc(b1-4)GlcNAc
# In short: as §1
# [28] = biological target: GlcNAc(b1-3)Fuc
# In short: as §1
# [29] = biological target: GlcNAc(b1-3)Gal
# In short: as §1
# [30] = biological target: GlcNAc(b1-3)Gal(b1-3)GalNAc
# In short: as §1
# [31] = biological target: GlcNAc(b1-3)Gal(b1-4)Glc
# In short: as §1
# [32] = biological target: GlcNAc(b1-3)Gal(b1-4)GlcNAc
# In short: as §1
# [33] = biological target: GlcNAc(b1-3)Gal(b1-4)GlcNAc(b1-2)Man(a1-3)[GlcNAc(b1-3)Gal(b1-4)GlcNAc(b1-2)Man(a1-6)]Man(b1-4)GlcNAc(b1-4)GlcNAc
# In short: as §1
# [34] = biological target: GlcNAc(b1-3)Gal(b1-4)GlcNAc(b1-2)Man(a1-3)[GlcNAc(b1-3)Gal(b1-4)GlcNAc(b1-2)Man(a1-6)]Man(b1-4)GlcNAc(b1-4)[Fuc(a1-6)]GlcNAc
# In short: as §1
# [35] = biological target: GlcNAc(b1-3)Gal(b1-4)GlcNAc(b1-2)[GlcNAc(b1-3)Gal(b1-4)GlcNAc(b1-6)]Man(a1-6)[GlcNAc(b1-3)Gal(b1-4)GlcNAc(b1-2)Man(a1-3)]Man(b1-4)GlcNAc(b1-4)GlcNAc
# In short: as §1
# [36] = biological target: GlcNAc(b1-3)Gal(b1-4)GlcNAc(b1-3)Gal(b1-4)GlcNAc
# In short: as §1
# [37] = biological target: GlcNAc(b1-3)Gal(b1-4)GlcNAc(b1-3)Gal(b1-4)GlcNAc(b1-2)Man(a1-3)[GlcNAc(b1-3)Gal(b1-4)GlcNAc(b1-3)Gal(b1-4)GlcNAc(b1-2)Man(a1-6)]Man(b1-4)GlcNAc(b1-4)GlcNAc
# In short: as §1
binder,measurement,setting,value
B1,glycan array binding signal (z-score),[1],0.409
same,glycan array binding signal (z-score),[2],-0.398
same,glycan array binding signal (z-score),[3],-0.281
same,glycan array binding signal (z-score),[4],-0.382
same,glycan array binding signal (z-score),[5],-0.374
same,glycan array binding signal (z-score),[6],-0.451
same,glycan array binding signal (z-score),[7],0.365
same,glycan array binding signal (z-score),[8],-0.401
same,glycan array binding signal (z-score),[9],-0.406
same,glycan array binding signal (z-score),[10],-0.389
same,glycan array binding signal (z-score),[11],-0.301
same,glycan array binding signal (z-score),[12],-0.366
same,glycan array binding signal (z-score),[13],-0.36
same,glycan array binding signal (z-score),[14],-0.22
same,glycan array binding signal (z-score),[15],-0.262
same,glycan array binding signal (z-score),[16],-0.235
same,glycan array binding signal (z-score),[17],-0.313
same,glycan array binding signal (z-score),[18],-0.342
same,glycan array binding signal (z-score),[19],-0.401
same,glycan array binding signal (z-score),[20],-0.397
same,glycan array binding signal (z-score),[21],-0.275
same,glycan array binding signal (z-score),[22],-0.337
same,glycan array binding signal (z-score),[23],-0.411
same,glycan array binding signal (z-score),[24],-0.404
same,glycan array binding signal (z-score),[25],-0.261
same,glycan array binding signal (z-score),[26],-0.386
same,glycan array binding signal (z-score),[27],-0.348
same,glycan array binding signal (z-score),[28],-0.44
same,glycan array binding signal (z-score),[29],-0.352
same,glycan array binding signal (z-score),[30],-0.394
same,glycan array binding signal (z-score),[31],-0.374
same,glycan array binding signal (z-score),[32],-0.409
same,glycan array binding signal (z-score),[33],-0.413
same,glycan array binding signal (z-score),[34],-0.259
same,glycan array binding signal (z-score),[35],-0.258
same,glycan array binding signal (z-score),[36],-0.419
same,glycan array binding signal (z-score),[37],0.879
